# The list shows a part of the results. The full chains were built here from the parent and the listed change. Values near 0.05 are background.
# B1: TEV protease; numbered along this chain (parent)
# chain: MGESLFKGPRDYNPISSSICHLTNESDGHTTSLYGIGFGPFIITNKHLFRRNNGTLVVQSLHGVFKVKDTTTLQQHLVDGRDMIIIRMPKDFPPFPQKLKFREPQREERICLVTTNFQTKSMSSMVSDTSCTFPSGDGIFWKHWIQTKDGQCGSPLVSTRDGFIVGIHSASNFTNTNNYFTSVPKNFMELLTNQEAQQWVSGWRLNADSVLWGGHKVFMVKPEEPFQPVKEATQL
# Variants of: B1
# Experiment: raw area under fraction-flipped curve 0-4 h after induction (AUC4h, not background-subtracted), DNA-recorder readout of cleavage of the substrate (dimensionless); higher = more cleavage of the substrate by the protease variant
# Settings: temperature: 34 °C; time window: 0-4 h after rhamnose induction
# Description: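 In vivo DNA recorder in E. coli TOP10(DE3) ΔrhaA at 34 °C. Each TEVp single-site mutant (parent TEVp 0) is paired with a single-site variant of the 7-mer TEVs (canonical ENLYFQ|S). The substrate sits between flexible linkers in a Bxb1-sfGFP-TEVs-SsrA fusion, so cleavage stabilises Bxb1 and speeds flipping of a recombination array, read by NGS. The value is the raw area under the fraction-flipped curve over 0-4 h after rhamnose induction (AUC4h), with ≥20 reads per time point. It is not background-subtracted; inactive controls average about 0.047.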
# 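Note: Bxb1 expression induced with 0.2% (w/v) L-rhamnose at OD600 near 0.5, cultures sampled hourly, flipped fraction per protease–substrate barcode pair counted by paired-end Illumina sequencing.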
Variant,area with substrate ENLYCQS,area with substrate ENLYDQS,area with substrate ENLYEQS,area with substrate ENLYGQS,area with substrate ENLYHQS,area with substrate ENLYKQS,area with substrate ENLYNQS,area with substrate ENLYQQS,area with substrate ENLYRQS,area with substrate ENLYSQS,area with substrate ENLYTQS,area with substrate ENLYVQS,area with substrate ENLYYQS,area with substrate ENLYIQS,area with substrate ENLYMQS,area with substrate ENLYWQS,area with substrate ENLYLQS,area with substrate ENLYPQS
K221D,0.0904,0.0595,0.0553,0.0683,0.0606,0.0463,0.0704,0.0583,0.0607,0.0955,0.074,0.103,0.0608,,,,,
S124E,,0.0621,0.0841,0.051,0.0786,0.0426,0.0755,0.0483,0.06,0.0801,0.0702,,,0.116,0.0894,0.0828,,
S124Q,,0.0538,0.0727,0.0654,,0.0607,0.0556,,,0.0808,,,0.0761,0.148,0.0673,0.0945,0.0771,0.0739
C111N,,0.0846,0.0739,0.0372,0.0414,0.0625,0.0742,0.0677,,,,,,0.119,0.0798,,,
C111I,0.086,0.0701,0.0605,,0.0712,0.065,0.0762,0.0681,0.0578,0.0706,0.0675,,,0.118,0.0837,0.0769,0.0658,0.0683
I85D,0.0318,0.0326,0.0614,0.0429,0.0366,,0.04,,0.049,,,,,,0.0402,,,0.0424
V67M,,0.0559,0.0817,0.0401,0.0702,0.0645,0.0446,0.0552,,0.0649,,0.111,,0.0943,0.0717,,0.0811,0.0762
Q151P,0.0662,0.0635,0.0485,0.0671,0.0545,0.0102,0.0823,,,,,0.0751,0.0467,0.0398,,,0.0451,0.0699
I86E,,0.0339,,0.0361,0.0355,0.0263,0.0334,0.0312,0.0088,,0.0301,0.0447,,0.03,,0.0186,,0.0081
L61D,,0.056,0.0765,0.0751,,0.053,0.0692,0.0606,0.062,0.0707,,0.13,0.062,0.132,0.0873,0.0903,0.0861,
S123V,,0.0793,0.0817,0.0601,0.074,0.0802,0.0657,0.0633,0.057,0.0733,0.0961,0.121,0.0093,0.161,0.0977,0.0837,,0.074
S127Y,0.0935,0.0466,0.0635,,0.0656,0.0603,0.067,,,,,0.148,,0.126,,0.0979,,0.0747
K148P,,0.0726,0.0611,0.0651,0.0569,0.06,0.0609,,0.0743,,0.0523,,,0.0706,0.0594,,,0.0716
T70A,0.0757,,0.0642,0.0645,0.0723,0.0667,0.0621,0.0633,,0.0566,0.0543,0.0784,0.0661,0.105,,,,0.0594
L22T,,0.0564,0.0487,0.0432,0.0542,0.0578,0.0513,0.0583,0.0547,0.0594,0.0536,0.0536,0.0545,0.0505,0.0571,0.0535,0.0272,0.0552
F41V,,0.056,0.108,0.0674,0.0664,0.0459,0.0656,0.0797,0.0501,0.0442,0.0764,0.136,0.0657,0.123,0.0829,0.0782,,0.093
Q59Y,,0.0539,,0.0743,0.0723,0.0632,0.0642,0.05,,0.0465,,0.107,,,,,0.0745,
F38A,,0.0631,0.0681,0.0476,,,0.0488,0.0524,,0.0626,,0.0547,0.0495,0.0906,0.0705,0.064,,0.0549
V165F,,0.0567,0.0506,,0.0644,,0.0629,,0.0459,0.0525,,0.0586,,,0.052,0.0543,,0.0541
R51L,,0.0531,0.0547,,0.0672,0.0662,0.0926,0.0636,0.0557,0.0744,0.11,0.111,0.0434,,0.0699,,,
S130Q,,0.0729,0.0744,,0.0729,0.0531,0.06,,,,,,0.0783,0.117,,0.0786,,0.0781
W141Q,,0.0525,0.062,0.0689,0.0574,0.0674,0.0538,0.0645,,0.0527,,0.0572,0.0433,0.0496,,0.0512,,0.0554
R160H,0.0574,0.0564,,,0.0613,0.0503,0.0688,,,,0.07,0.13,,0.138,,0.08,,
T114P,0.023,0.0507,0.0669,0.0704,0.0664,,0.0625,0.0509,,,0.0565,0.0738,,0.0858,0.0591,0.0516,,0.0579
Q105A,0.0805,0.0625,0.0809,0.0581,0.0579,0.06,0.0791,0.0623,,0.0702,0.0871,0.117,0.0704,,0.0863,,0.0703,0.0696
F226A,0.0547,0.0243,,,0.0785,,0.0489,,0.0659,,,0.141,,,0.0888,,,0.0666
K90L,,0.0617,0.0736,,0.0616,0.0592,0.0714,,0.0594,,,0.17,,,,,,
K185F,0.0871,0.0589,0.0708,0.0709,0.0705,0.0749,0.0752,0.0684,0.0701,0.0918,0.0924,,0.0672,,0.0629,0.0859,0.0805,

# Source: the supplement of paper PMC12217912
